In PubChem BioAssay AID1631 (National Center for Advancing Translational Sciences (NCATS), 2009):
Among all 260,000 compounds or so, about 890 (0.34%) were called active. Inconclusive results, whose numbers are uncertain, are shown with a selection of clear calls. The call rests on the fitted dose curve; in most records, active means well fitted activation curve with a large enough effect; inconclusive means small, poorly fitted or top-dose-only effect; inactive means no such curve, though single readings can be large or run the other way. No potency is given beside an inconclusive call; the fits are too rough.

These compounds were tested against Pyruvate kinase PKM (Homo sapiens) (UniProt P14618) (assay: qHTS Assay for Activators of Human Muscle isoform 2 Pyruvate Kinase). Conditions: purified PKM2, Kinase-Glo ATP luminescence; Potency: activation; activation: at 57.5 µM (top of the series), 0% is enzyme alone, no compound.
Summary of the method: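 Kinase-Glo luminescence reports ATP generated from ADP (0.1 mM) and PEP (0.5 mM) by purified hPK-M2 after 1 h at room temperature, pH 7.2 imidazole buffer; intermediate enzyme activity allows detecting inhibitors and activators.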
Further: nearly all actives have a fitted effect of over 55% in size.
On the % scale 0 is the no-effect control and ±100 the full control effect; potency means the concentration at half of the fitted maximal effect; tags describe the fitted curve by direction and shape.

Sequence of UniProt P14618 (P14618 whole entry, looked up, canonical isoform): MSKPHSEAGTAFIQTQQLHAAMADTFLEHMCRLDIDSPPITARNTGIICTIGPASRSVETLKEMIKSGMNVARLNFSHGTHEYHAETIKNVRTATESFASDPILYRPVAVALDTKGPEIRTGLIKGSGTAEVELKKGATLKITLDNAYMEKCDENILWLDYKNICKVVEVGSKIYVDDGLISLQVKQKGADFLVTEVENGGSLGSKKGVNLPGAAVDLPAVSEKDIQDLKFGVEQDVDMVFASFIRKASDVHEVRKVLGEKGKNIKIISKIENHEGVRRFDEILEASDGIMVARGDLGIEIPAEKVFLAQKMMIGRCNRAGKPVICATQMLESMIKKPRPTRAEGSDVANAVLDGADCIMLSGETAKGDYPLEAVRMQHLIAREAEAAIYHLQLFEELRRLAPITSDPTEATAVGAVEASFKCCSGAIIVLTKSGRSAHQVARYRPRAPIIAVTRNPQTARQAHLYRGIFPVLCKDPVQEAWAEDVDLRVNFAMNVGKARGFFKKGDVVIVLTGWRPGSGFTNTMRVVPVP

SMILES	Potency	activation
O=C(Nc1ccc(Cl)cc1)[C@@H]1[C@@H]2C(=O)N(c3ccc(Cl)cc3)C(=O)[C@@H]2[C@H]2C=CC=NN21	inconclusive [rising, single point]	–
CCOC(=O)Cc1csc(NS(=O)(=O)c2ccc(OC)cc2)n1	inconclusive [rising, partial curve]	–
N#C/C(=C/c1ccc(N2CCCCCC2)o1)c1cccc(F)c1	inconclusive [rising, full curve]	–
CC(C)c1ccc(Nc2nnc(SCC(=O)Nc3ncc(S(=O)(=O)c4ccc([N+](=O)[O-])cc4)s3)s2)cc1	inconclusive [rising, single point]	–
CCc1nnc(NC(=O)CSc2nc3cccnc3n2C2CCCCC2)s1	inconclusive [rising, single point]	–
Cn1c(=O)n(C)c2cc(NS(=O)(=O)c3ccccc3)ccc21	–	inactive: 18.3%
CCCc1nc(NCc2ccccn2)c2nnn(Cc3ccccc3F)c2n1	–	inactive: 4.29%
O=C(Cc1ccc(Cl)cc1)N/N=C/c1cccc(O)c1	–	inactive: 1.45%
Cc1ccc(NC(=O)CC2NCCN(Cc3ccccc3)C2=O)cc1 (stereo not given)	inconclusive [rising, single point]	–
Cc1ccccc1OCC(O)CN1CCN(CCN2C(=O)c3cccc4cccc(c34)C2=O)CC1 (stereo not given)	–	inactive: 1.46%
Cc1ccc(S(=O)(=O)c2ccc(C)cc2)cc1	–	inactive: 8.84%
c1ccc2c(SCc3cn4ccccc4n3)nncc2c1	active: 4.47 µM	–
CCn1cc(/C=N\NC(=O)Cc2ccc(Cl)cc2)cn1	–	inactive: -0.248%
O=[N+]([O-])c1ccc2nc(CCCO)[nH]c2c1	inconclusive [rising, single point]	–
CC(C)(C(=O)N[C@H](CO)c1ccccc1)C(=O)N[C@H](CO)c1ccccc1	–	inactive: -0.956%
CC(=O)c1ccc(NC(=O)CSc2nnc(-c3ccco3)c(-c3ccco3)n2)cc1	inconclusive [rising, single point]	–
S=C(NC1CCCC1)N1CCN(C/C=C/c2ccccc2)CC1	inconclusive [rising, single point]	–
O=C1c2ccccc2N2C(=O)c3ccccc3C2N1Cc1ccco1 (stereo not given)	inconclusive [rising, single point]	–
Clc1ccc(-n2cccc2/C=N/n2cnnc2)cc1	inconclusive [rising, partial curve]	–
OC(CNCC1CCCO1)Cn1c2ccc(Cl)cc2c2cc(Cl)ccc21 (stereo not given)	–	inactive: 0.148%
O=S(=O)(c1ccc(Cl)cc1)c1ccccn1	inconclusive [rising, single point]	–
O=C(CSCc1nc2ccccc2[nH]1)N1CCN(c2cccc(Cl)c2)CC1	inconclusive [rising, single point]	–
CCOc1ccc(S(=O)(=O)N2CCN(C(=S)NCc3ccccc3)CC2)cc1	inconclusive [rising, single point]	–
COc1ccc2[nH]c3c4c(ccc3c2c1)C(=O)C=CC4=O	active: 1.26 µM	–
O=C(CCNS(=O)(=O)c1cccc2nsnc12)N1CCc2ccccc21	inconclusive [rising, single point]	–

SMILES	Potency	activation
Cc1c(C#N)c(O)n(CCO)c(=O)c1N=Nc1ccc(S(N)(=O)=O)cc1	inconclusive [rising, single point]	–
O=C(CSc1ccc(-c2cccnc2)nn1)Nc1ccccc1	inconclusive [rising, partial curve]	–
Cc1ccc(N/N=C/c2c(C)c(C#N)c(=O)n(C)c2O)cc1C	inconclusive [rising, full curve]	–
N/C(=C\C(=O)c1cc(Cl)ccc1O)C(Cl)(Cl)Cl	inconclusive [rising, single point]	–
CCOC(=O)C1CN(S(=O)(=O)c2ccc(C)cc2)c2ccccc2O1 (stereo not given)	–	inactive: 0.274%
CCSc1nnc(NC(=O)Cc2ccc(OC)cc2)s1	inconclusive [rising, partial curve]	–
COC(=O)N/N=C\c1cc2c(cc1Br)OCO2	inconclusive [rising, single point]	–
Cc1cc(C)cc(NC(=O)/C=C/c2ccc([N+](=O)[O-])s2)c1	–	inactive: 0.931%
O=C(C1CCCN(Cc2ccccc2C(F)(F)F)C1)N1CCCCC1 (stereo not given)	–	inactive: 1.32%
O=S(=O)(c1ccc(F)cc1)N1CCN(C(=S)NCc2ccccc2)CC1	inconclusive [rising, single point]	–
CN=C(C)/C(C(=O)OC)=C(/O)c1ccccc1F	inconclusive [rising, single point]	–
Cc1ccc(-c2nc(CSCC(=O)Nc3cc(C)on3)c(C)o2)cc1	inconclusive [rising, single point]	–
CCCC(=O)NC(c1ccccc1OC)c1ccc2cccnc2c1O (stereo not given)	inconclusive [rising, single point]	–
O=C1Nc2cc(Cl)c(Cl)cc2N(O)N1c1ccc(Cl)c(Cl)c1	–	inactive: -1.77%
CCOc1cc(/C=C2/C(=O)ON=C2C)ccc1OCc1ccccc1F	active: 15.8 µM	–
O=C(CCSc1ccc(Br)cc1)Nc1cccnc1	inconclusive [rising, single point]	–
C#CCSc1nsc(SCC#C)c1C#N	inconclusive [rising, partial curve]	–
COc1ccc(NC(=O)C2C3C=CC4(O3)C2C(=O)N(CCN2CCCCC2)C4C(=O)NC2CCCC(C)C2C)cc1 (stereo not given)	–	inactive: -3.1%
C=CCNC(=S)NNC(=O)c1cccc2ccccc12	–	inactive: -7.47%
O=C(COc1ccc(S(=O)(=O)Nc2ccccc2)cc1)NCc1ccccn1	inconclusive [rising, single point]	–
Cc1ccc2c(CSc3nnnn3C)cc(=O)oc2c1	inconclusive [rising, single point]	–
CCOc1ccc(S(=O)(=O)N(C)c2ccc(OCC(=O)NC3=NCCS3)cc2)cc1	inconclusive [rising, single point]	–
COc1cc(/C=C(\C#N)c2nc3ccc(C)cc3[nH]2)cc([N+](=O)[O-])c1O	inconclusive [rising, single point]	–
O=C(/C=C/c1ccco1)NCCc1ccccc1	–	inactive: -0.189%
C(=Nc1ccc(Nc2ccccc2)cc1)c1ccc2ccccc2c1	–	inactive: 13.7%

SMILES	Potency	activation
Cc1c(Cl)cccc1NC(CC(=O)c1ccccc1)C(=O)O (stereo not given)	inconclusive [rising, single point]	–
Cc1nc2cc(NS(=O)(=O)c3ccccc3F)ccc2s1	inconclusive [rising, single point]	–
O=C(Nc1ccc(N2CCOCC2)cc1)c1ccc([N+](=O)[O-])cc1	–	inactive: 1.29%
COc1ccc(Oc2nnc(-c3ccc(C)cc3)c3ccccc23)cc1	–	inactive: -7.13%
COC(=O)c1ccc(Cn2cnc3c(cnn3-c3ccc(F)cc3)c2=O)o1	inconclusive [rising, single point]	–
C/C=C\C=C/C(=O)Nc1cccc(C2=NOC3(C2)C[C@H](C(N)=O)N(C(=O)CC)C3)c1 (stereo not given in full)	active: 12.6 µM	–
CCOc1ccc(S(=O)(=O)N2CCc3cc(OC)c(OC)cc3C2)cc1	active: 15.8 µM	–
CCOC(=O)Cc1csc(NC(=O)c2ccc(S(=O)(=O)N3CCCCC3)cc2)n1	–	inactive: 0.246%
Nc1nnc(COc2cccc(C(F)(F)F)c2)s1	inconclusive [rising, single point]	–
N=c1c(C(=O)NCc2ccc3c(c2)OCO3)cc2c(=O)n3ccccc3nc2n1Cc1cccnc1	inconclusive [rising, partial curve]	–
O=C(NCc1n[nH]c(=S)n1-c1ccc(Cl)c(Cl)c1)c1cccs1	–	inactive: -15.7%
O=C(Nc1ccccc1)[C@@H]1[C@@H]2C(=O)N(c3ccc(F)cc3)C(=O)[C@@H]2[C@H]2C=CC=NN21	active: 8.91 µM	–
O=c1cc(-c2c(F)c(F)c(F)c(F)c2F)oc2c(F)c(F)c(F)c(F)c12	–	inactive: -5.18%
O=C(Oc1ccc(-c2csnn2)cc1)c1cccs1	–	inactive: 0.337%
CN(c1ccc(C(=O)NCc2ccc3c(c2)OCO3)cc1)S(=O)(=O)c1ccccc1	active: 15.8 µM	–
COC(=O)c1cccc(NC(=O)CSc2nnc(COc3ccc(C#N)cc3)n2-c2ccccc2)c1	inconclusive [rising, single point]	–
c1cncc(-c2nnc(SCc3nc4ccccc4[nH]3)o2)c1	inconclusive [rising, full curve]	–
CCOC(=O)c1sc(N2C(=O)C(O)=C(C(=O)c3ccco3)C2c2ccc(C)o2)nc1C (stereo not given)	inconclusive [rising, partial curve]	–
O=C(NCC1CCCO1)c1cc(-c2ccccc2)nc2ccc(Br)cc12 (stereo not given)	–	inactive: -1.06%
COC(=O)c1c(C)n(-c2ccc(OC)cc2)c2ccc(O)cc12	inconclusive [rising, partial curve]	–
O=C(CSc1nnc(SCc2ccccc2)s1)N/N=C/C=C/c1ccco1	inconclusive [rising, single point]	–
CC(NC(=O)/C(C#N)=C/c1ccc(Cl)c([N+](=O)[O-])c1)c1ccccc1 (stereo not given)	inconclusive [rising, single point]	–
CCc1ccc2[nH]c(=O)c(CN(CCO)C(=O)NCc3ccccc3)cc2c1	–	inactive: -2.6%
Cc1c2c(nc3nnnn13)CCCC2	inconclusive [rising, single point]	–
CCN(CC)S(=O)(=O)c1cccc(C(=O)N/N=C/c2ccccn2)c1	inconclusive [rising, single point]	–
